Results from PubChem BioAssay AID1347430 (National Center for Advancing Translational Sciences (NCATS), 2020).
About 130 (0.14%) of roughly 91,000 compounds were called active. Inconclusive results, whose numbers are uncertain, are shown with a selection of clear calls. The call rests on the fitted dose curve; in most records, active means well fitted inhibition curve with a large enough effect; inconclusive means small, poorly fitted or top-dose-only effect; inactive means flat fitted curve, though single readings scatter. Potencies of inconclusive entries are doubtful fits and often do not repeat.

Each compound was assayed on Uracil-DNA glycosylase (assay: Primary qHTS assay for inhibitors of Activation Induced Cytidine Deaminase (AID): UDG Counterscreen signal). Details: FRET deamination/UDG coupled assay, UDG read, 4 h; activity change, negative = inhibition: at 115 µM (top of the series).
Further: nearly all actives have a fitted effect of over 65% in size.
On the % scale 0 is the no-effect control and ±100 the full control effect; potency means the concentration at half of the fitted maximal effect; tags describe the fitted curve by direction and shape.

Row | SMILES | Potency | activity change, negative = inhibition
1 | CS(=O)(=O)Cc1ccc(CNCc2ccccc2Cl)cc1 | active: 15.8 µM | 
2 | Cc1ccc(Sc2c(C)nn(-c3ccccc3)c2OC(=O)CC(C)C)cc1 |  | inactive: -18.9%
3 | CCOc1ccc(CC(=O)NCc2ccc3c(c2)CCN3C(=O)c2ccc(F)cc2)cc1OCC | inconclusive: 89.1 µM [inhibitor, single point] | 
4 | Cc1ccc(Cn2c(Cc3ccccc3)nc3ccccc32)cc1 | inconclusive: 100 µM [inhibitor, partial curve, poor fit] | 
5 | COc1ccc(-c2noc(CSc3nnc(-c4ccncc4)n3-c3ccc(OC)cc3)n2)cc1 | active: 79.4 µM | 
6 | Oc1ccccc1-c1nc(/C=C/c2ccccc2)nn1-c1ccccc1 | inconclusive: 100 µM [inhibitor, single point] | 
7 | COC(=O)c1cc(COC(=O)C2COc3ccccc3O2)oc1C (stereo not given) |  | inactive: 7.65%
8 | CC(=O)N(CCC1(CCC(C)C)CCOC(C)(C)C1)Cc1ccco1 (stereo not given) |  | inactive: 8.04%
9 | CCCOC(=O)c1cccc(Nc2nc(C(=O)OCC)nc3ccccc23)c1 | active: 89.1 µM | 
10 | COc1ccc(CNC(=O)Cc2ccc(NC(=O)N3CCCCc4ccccc43)cc2)cc1 | inconclusive: 89.1 µM [inhibitor, single point] | 
11 | CC(OC(=O)c1cc2ccccc2[nH]1)C(=O)NC1CC1 (stereo not given) |  | inactive: 3.66%
12 | Cn1c(=O)c2c(-c3ccccc3)n3c(c2n(C)c1=O)C(c1cccc([N+](=O)[O-])c1)Nc1ccccc1-3 (stereo not given) | inconclusive: 89.1 µM [inhibitor, single point] | 
13 | CC(C)CN(CC(C)C)c1nnc(NC(=O)Nc2cccc(C(F)(F)F)c2)s1 | inconclusive: 89.1 µM [inhibitor, partial curve, poor fit] | 
14 | Nc1ccc(-c2nc3ccc(-c4nc5ccc(N)cc5[nH]4)cc3[nH]2)cc1 | inconclusive: 5.01 µM [inhibitor, full curve] | 
15 | Cc1cc(C)c(Cn2c(CCNC(=O)c3ccco3)nc3ccccc32)c(C)c1 | inconclusive: 89.1 µM [inhibitor, single point] | 
16 | c1ccc(Cc2nnc(SCc3nc(-c4cccs4)no3)n2-c2ccccc2)cc1 | inconclusive: 56.2 µM [inhibitor, partial curve, poor fit] | 
17 | Cc1ccsc1-c1nc(-c2ccc3c(c2)CCO3)cs1 |  | inactive: -7.93%
18 | CCCCn1cc(S(=O)(=O)c2ccc(CC)cc2)c(=O)c2cc(F)c(N3CCCC(C)C3)cc21 (stereo not given) | inconclusive: 89.1 µM [inhibitor, single point] | 
19 | C/C(=N\Nc1c(Cl)cc(Cl)cc1Cl)c1ccc(Cl)cc1Cl |  | inactive: 14%
20 | COc1ccc(NC(=O)N2c3ccccc3Sc3ccccc32)cc1OC | inconclusive: 89.1 µM [inhibitor, single point] | 
